No constants are given. Whether binding was seen depends on the method and setting. For part of these data: In cells and extracts the contact can be indirect. Some entries that bind do so weakly or less than the wild type. For part of these data: Where a sequence is shown, tags or fusion partners need not be part of it.
Tests used:
[1] = molecular target: T1, FLAG-tagged BCAP TIR domain (1-145) (human) (UniProt Q6ZUJ8); experiment: co-IP; HEK293T co-transfected with FLAG-tagged BCAP constructs and Myc-MAL or Myc-MyD88; lysis 24 h after transfection in 20 mM Tris, 150 mM NaCl, 1 mM EDTA, 0.5% Nonidet P-40, pH 8; precipitation with anti-FLAG M2 beads, blot with anti-Myc
T1 sequence: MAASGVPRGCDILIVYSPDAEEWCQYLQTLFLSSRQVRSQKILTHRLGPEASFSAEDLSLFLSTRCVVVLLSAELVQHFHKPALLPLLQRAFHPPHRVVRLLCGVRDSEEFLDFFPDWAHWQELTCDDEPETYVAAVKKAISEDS

Chains of the proteins cited; added tags and fusions are not shown. Lines headed by an entry give the natural chain unless they say otherwise; changes in a name come on top.
UniProt P58753: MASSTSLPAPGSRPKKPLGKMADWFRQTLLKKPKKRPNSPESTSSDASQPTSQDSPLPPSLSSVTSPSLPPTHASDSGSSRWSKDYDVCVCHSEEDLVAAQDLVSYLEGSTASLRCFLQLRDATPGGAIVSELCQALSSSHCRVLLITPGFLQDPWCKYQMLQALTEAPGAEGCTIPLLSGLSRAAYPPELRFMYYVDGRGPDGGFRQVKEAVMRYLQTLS
UniProt Q99836: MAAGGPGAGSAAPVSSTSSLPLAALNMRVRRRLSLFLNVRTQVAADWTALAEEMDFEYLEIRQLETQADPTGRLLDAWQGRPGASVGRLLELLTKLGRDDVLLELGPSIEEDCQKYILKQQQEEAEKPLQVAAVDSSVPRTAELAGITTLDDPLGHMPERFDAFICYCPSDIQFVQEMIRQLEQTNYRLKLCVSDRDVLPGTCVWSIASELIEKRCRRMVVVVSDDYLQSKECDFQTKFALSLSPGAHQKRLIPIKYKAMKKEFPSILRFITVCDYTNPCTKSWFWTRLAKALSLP

[2] = molecular target: T2, FLAG-tagged BCAP TIR-DBB-ANK (1-426) (human) (UniProt Q6ZUJ8); experiment: as above
T2 sequence: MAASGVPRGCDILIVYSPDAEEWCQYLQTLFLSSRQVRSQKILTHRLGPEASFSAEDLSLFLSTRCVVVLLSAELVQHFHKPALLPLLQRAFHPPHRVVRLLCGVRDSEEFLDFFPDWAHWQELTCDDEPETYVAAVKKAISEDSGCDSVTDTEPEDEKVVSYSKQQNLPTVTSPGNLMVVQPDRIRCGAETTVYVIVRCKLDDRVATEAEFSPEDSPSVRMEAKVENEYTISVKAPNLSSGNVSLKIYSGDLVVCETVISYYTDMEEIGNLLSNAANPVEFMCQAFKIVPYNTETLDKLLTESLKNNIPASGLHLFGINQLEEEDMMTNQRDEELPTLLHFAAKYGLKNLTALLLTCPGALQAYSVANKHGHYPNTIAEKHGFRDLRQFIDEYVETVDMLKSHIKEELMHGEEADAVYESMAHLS

[3] = molecular target: T3, FLAG-tagged BCAP TIR-DBB (1-311) (human) (UniProt Q6ZUJ8); experiment: as above
T3 sequence: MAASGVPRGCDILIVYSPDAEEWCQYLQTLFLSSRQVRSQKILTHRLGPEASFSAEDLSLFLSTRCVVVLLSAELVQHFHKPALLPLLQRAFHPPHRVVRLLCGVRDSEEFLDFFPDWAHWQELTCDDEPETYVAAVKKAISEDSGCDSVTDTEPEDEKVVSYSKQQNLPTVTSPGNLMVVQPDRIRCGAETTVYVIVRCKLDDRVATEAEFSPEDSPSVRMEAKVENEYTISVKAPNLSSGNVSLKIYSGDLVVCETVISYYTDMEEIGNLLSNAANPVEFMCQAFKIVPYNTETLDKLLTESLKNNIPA

[4] = molecular target: T4, FLAG-tagged full-length BCAP (human) (UniProt Q6ZUJ8); experiment: as above
T4 sequence: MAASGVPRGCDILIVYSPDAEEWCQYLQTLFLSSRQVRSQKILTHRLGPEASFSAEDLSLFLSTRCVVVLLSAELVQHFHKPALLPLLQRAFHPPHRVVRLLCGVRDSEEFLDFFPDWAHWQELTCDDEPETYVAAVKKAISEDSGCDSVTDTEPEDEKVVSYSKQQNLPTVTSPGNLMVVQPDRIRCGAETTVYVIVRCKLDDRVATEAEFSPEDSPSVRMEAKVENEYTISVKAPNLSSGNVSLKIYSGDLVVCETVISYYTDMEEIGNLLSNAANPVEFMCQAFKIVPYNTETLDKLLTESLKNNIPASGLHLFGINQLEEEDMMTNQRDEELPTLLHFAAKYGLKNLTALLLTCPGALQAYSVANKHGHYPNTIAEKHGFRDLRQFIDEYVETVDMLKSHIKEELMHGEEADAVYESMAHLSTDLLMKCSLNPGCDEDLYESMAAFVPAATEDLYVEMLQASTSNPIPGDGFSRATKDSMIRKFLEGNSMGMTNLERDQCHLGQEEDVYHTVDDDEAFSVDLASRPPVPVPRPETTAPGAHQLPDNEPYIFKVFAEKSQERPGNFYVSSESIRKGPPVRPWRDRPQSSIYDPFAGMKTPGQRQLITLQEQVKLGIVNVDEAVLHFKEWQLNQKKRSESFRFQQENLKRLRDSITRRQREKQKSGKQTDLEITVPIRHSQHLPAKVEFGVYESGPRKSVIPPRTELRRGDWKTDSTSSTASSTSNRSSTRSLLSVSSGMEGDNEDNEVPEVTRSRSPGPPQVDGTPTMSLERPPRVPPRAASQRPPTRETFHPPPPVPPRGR

[5] = molecular target: T5, BCAP(FL), full-length BCAP (2-805) (human) (UniProt Q6ZUJ8); experiment: SEC; analytical size exclusion chromatography of purified, unpolymerized MAL TIR domain and BCAP(FL) after incubation at 30°C for 1 h; both purified
T5 sequence: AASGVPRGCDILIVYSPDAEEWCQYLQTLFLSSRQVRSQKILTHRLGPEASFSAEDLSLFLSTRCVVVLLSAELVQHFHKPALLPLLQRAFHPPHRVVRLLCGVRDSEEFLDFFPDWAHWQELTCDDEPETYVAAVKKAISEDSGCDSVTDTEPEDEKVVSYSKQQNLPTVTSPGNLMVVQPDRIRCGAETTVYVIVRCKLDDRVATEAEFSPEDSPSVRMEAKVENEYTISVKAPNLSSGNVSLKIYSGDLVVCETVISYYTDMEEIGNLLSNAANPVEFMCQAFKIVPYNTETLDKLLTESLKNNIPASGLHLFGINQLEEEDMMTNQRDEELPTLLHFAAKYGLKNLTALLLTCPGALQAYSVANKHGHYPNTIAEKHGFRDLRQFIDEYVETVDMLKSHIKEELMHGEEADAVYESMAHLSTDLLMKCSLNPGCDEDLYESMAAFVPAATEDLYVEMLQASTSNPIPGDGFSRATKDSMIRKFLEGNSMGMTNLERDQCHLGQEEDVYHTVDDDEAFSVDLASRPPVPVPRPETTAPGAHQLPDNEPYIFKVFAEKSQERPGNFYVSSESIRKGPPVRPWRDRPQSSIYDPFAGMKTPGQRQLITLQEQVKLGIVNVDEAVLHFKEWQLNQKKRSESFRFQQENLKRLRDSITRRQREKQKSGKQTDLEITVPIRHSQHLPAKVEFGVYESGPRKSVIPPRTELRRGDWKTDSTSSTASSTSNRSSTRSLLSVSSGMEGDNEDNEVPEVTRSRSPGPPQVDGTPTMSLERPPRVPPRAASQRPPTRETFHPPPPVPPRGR

MAL TIR domain (79-221) = MAL TIR domain (79-221) (UniProt P58753); experiment: co-sedimentation; filament formation assay: MAL TIR alone or with BCAP constructs (molar ratio 1:10, from 10 μM stocks), 30°C for 1 h; 16,000 x g for 10 min; supernatant and pellet on SDS-PAGE, Coomassie; both purified

Myc-tagged MAL (from UniProt P58753 1-221)
binding [1]: binds | binding [2]: binds | binding [3]: binds | binding [4]: binds

Myc-tagged MyD88 (from UniProt Q99836 1-296)
binding [2]: binds | binding [3]: binds | binding [4]: binds

MAL TIR domain (79-221) (from UniProt P58753 79-221) (domain or fragment)
binding [5]: no binding | binding (MAL TIR domain (79-221)): binds

From PMC7128310, “Negative Regulation of TLR Signaling by BCAP Requires Dimerization of Its DBB Domain” (The Journal of Immunology Author Choice, 2020)
